In PMC7641798:
Results are given in words; binding and its absence hold for the method and conditions named. Some binding calls cover weakened binding; strength is not graded here. For part of these data: Sequences can lack the tags named with a protein.

T1: Strep-CFP-Mbl (Bacillus subtilis) (UniProt P39751)
T1 sequence: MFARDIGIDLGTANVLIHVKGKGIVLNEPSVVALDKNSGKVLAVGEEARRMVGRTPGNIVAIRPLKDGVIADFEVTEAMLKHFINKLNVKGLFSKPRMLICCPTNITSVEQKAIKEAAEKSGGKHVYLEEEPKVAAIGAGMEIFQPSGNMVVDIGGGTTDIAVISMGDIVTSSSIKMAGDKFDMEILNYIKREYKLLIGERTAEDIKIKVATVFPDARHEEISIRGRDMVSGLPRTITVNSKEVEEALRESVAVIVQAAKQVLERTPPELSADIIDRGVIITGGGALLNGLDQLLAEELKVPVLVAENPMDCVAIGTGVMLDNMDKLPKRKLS

T2: Strep-YFP-MreB from B. subtilis (Bacillus subtilis) (UniProt Q01465)
T2 sequence: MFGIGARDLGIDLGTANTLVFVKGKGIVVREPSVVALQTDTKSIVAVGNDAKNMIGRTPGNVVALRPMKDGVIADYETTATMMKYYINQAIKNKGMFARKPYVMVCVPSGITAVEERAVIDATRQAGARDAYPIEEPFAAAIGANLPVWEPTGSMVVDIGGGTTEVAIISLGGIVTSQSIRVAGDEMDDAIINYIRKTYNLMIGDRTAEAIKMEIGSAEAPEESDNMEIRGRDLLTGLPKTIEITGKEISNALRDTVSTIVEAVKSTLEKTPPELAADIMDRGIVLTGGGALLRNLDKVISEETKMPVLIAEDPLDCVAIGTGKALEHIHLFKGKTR

B1: Strep-CFP-Mbl (protein, UniProt P39751 1-333)
chain: T1 sequence
B2: Strep-mCherry-MreBH (protein, UniProt P39763 1-335)
chain: MFQSTEIGIDLGTANILVYSKNKGIILNEPSVVAVDTTTKAVLAIGADAKNMIGKTPGKIVAVRPMKDGVIADYDMTTDLLKHIMKKAAKSIGMSFRKPNVVVCTPSGSTAVERRAISDAVKNCGAKNVHLIEEPVAAAIGADLPVDEPVANVVVDIGGGTTEVAIISFGGVVSCHSIRIGGDQLDEDIVSFVRKKYNLLIGERTAEQVKMEIGHALIEHIPEAMEIRGRDLVTGLPKTIMLQSNEIQDAMRESLLHILEAIRATLEDCPPELSGDIVDRGVILTGGGALLNGIKEWLTEEIVVPVHVAQNPLESVAIGTGRSLEVIDKLQKAIK
B3: Strep-YFP-MreB from B. subtilis (protein, UniProt Q01465 1-337)
chain: T2 sequence

What was measured:
[1] = biological target: T1, Strep-CFP-Mbl (Bacillus subtilis); test: condition: only isolated monomer peak, polymerization not induced; sucrose density gradient ultracentrifugation; 5-15% (w/v) sucrose gradient, isolated monomer peaks from gel filtration, SW40Ti, 38.000 x g, 4 °C, about 16 h; Biorad gel filtration standard as reference; both purified
[2] = biological target: T1, Strep-CFP-Mbl (Bacillus subtilis); test: condition: only expression under osmotic stress and purification buffer with 300 mM NaCl, 1 mM EDTA; SEC; Superdex 200 Increase 10/300 GL after streptactin purification; expression overnight under osmotic stress (500 mM sorbitol, 1 mM betaine); purification buffer 100 mM Tris HCl, 300 mM NaCl, 1 mM EDTA, 0.2 mM ATP, 5% glycerol pH 7.5; monomer peak (fraction A6); both purified
[3] = biological target: T2, Strep-YFP-MreB from B. subtilis (Bacillus subtilis); test: fluorescence microscopy of filaments on a supported lipid bilayer; 2 μM of a second paralog added to pre-polymerized filaments (2 μM) of a first paralog on a planar membrane, after washing, second polymerization; both purified
[4] = biological target: T2, Strep-YFP-MreB from B. subtilis (Bacillus subtilis); test: fluorescence microscopy of filaments on a supported lipid bilayer; all three paralogs mixed, each 1 μM, on a planar membrane, ion-induced polymerization, confocal microscopy; both purified
[5] = biological target: T1, Strep-CFP-Mbl (Bacillus subtilis); test: condition: only isolated monomers, polymerization not induced; 50 nM; mass photometry; Refeyn OneMP, isolated monomers, 50 nM final concentration in sample buffer, room temperature; both purified
[6] = biological target: T1, Strep-CFP-Mbl (Bacillus subtilis); test: fluorescence microscopy of filaments on a supported lipid bilayer; purified protein(s), alone or two mixed, on a planar membrane of E. coli polar lipids in low salt buffer (5 mM TRIS-HCl, 0.1 mM CaCl2, 0.2 mM ATP, pH 7.5), room temperature; polymerization induced with divalent cations (10 mM MgCl2 if not stated otherwise), washed; epifluorescence or STED; KCl or NaCl added in some samples; both purified
[7] = biological target: T2, Strep-YFP-MreB from B. subtilis (Bacillus subtilis); test: as above
[8] = biological target: Strep-mCherry-MreBH (Bacillus subtilis) (UniProt P39763); test: condition: only isolated monomer peak, polymerization not induced; sucrose density gradient ultracentrifugation; 5-15% (w/v) sucrose gradient, isolated monomer peaks from gel filtration, SW40Ti, 38.000 x g, 4 °C, about 16 h; Biorad gel filtration standard as reference; both purified
[9] = biological target: T2, Strep-YFP-MreB from B. subtilis (Bacillus subtilis); test: fluorescence microscopy of filaments on a supported lipid bilayer; two paralogs mixed and polymerized; data not shown; both purified
[10] = biological target: Strep-mCherry-MreBH (Bacillus subtilis) (UniProt P39763); test: condition: only expression under osmotic stress and purification buffer with 300 mM NaCl, 1 mM EDTA; SEC; Superdex 200 Increase 10/300 GL after streptactin purification; expression overnight under osmotic stress (500 mM sorbitol, 1 mM betaine); purification buffer 100 mM Tris HCl, 300 mM NaCl, 1 mM EDTA, 0.2 mM ATP, 5% glycerol pH 7.5; monomer peak (fraction A6); both purified
[11] = biological target: T1, Strep-CFP-Mbl (Bacillus subtilis); test: fluorescence microscopy of filaments on a supported lipid bilayer; 2 μM of a second paralog added to pre-polymerized filaments (2 μM) of a first paralog on a planar membrane, after washing, second polymerization; both purified
[12] = biological target: T1, Strep-CFP-Mbl (Bacillus subtilis); test: fluorescence microscopy of filaments on a supported lipid bilayer; all three paralogs mixed, each 1 μM, on a planar membrane, ion-induced polymerization, confocal microscopy; both purified
[13] = biological target: T2, Strep-YFP-MreB from B. subtilis (Bacillus subtilis); test: fluorescence microscopy of filaments on a supported lipid bilayer; a second paralog added to preformed filaments of a first paralog; data not shown; both purified
[14] = biological target: Strep-mCherry-MreBH (Bacillus subtilis) (UniProt P39763); test: condition: only isolated monomers, polymerization not induced; 50 nM; mass photometry; Refeyn OneMP, isolated monomers, 50 nM final concentration in sample buffer, room temperature; both purified
[15] = biological target: Strep-mCherry-MreBH (Bacillus subtilis) (UniProt P39763); test: fluorescence microscopy of filaments on a supported lipid bilayer; purified protein(s), alone or two mixed, on a planar membrane of E. coli polar lipids in low salt buffer (5 mM TRIS-HCl, 0.1 mM CaCl2, 0.2 mM ATP, pH 7.5), room temperature; polymerization induced with divalent cations (10 mM MgCl2 if not stated otherwise), washed; epifluorescence or STED; KCl or NaCl added in some samples; both purified
[16] = biological target: T1, Strep-CFP-Mbl (Bacillus subtilis); test: fluorescence microscopy of filaments on a supported lipid bilayer; a second paralog added to preformed filaments of a first paralog; data not shown; both purified

| Binder | binding [1] | binding [2] | binding [3] | binding [4] | binding [5] | binding [6] | binding [7] | binding [8] | binding [9] | binding [10] | binding [11] | binding [12] | binding [13] | binding [14] | binding [15] | binding [16] |
| --- | --- | --- | --- | --- | --- | --- | --- | --- | --- | --- | --- | --- | --- | --- | --- | --- |
| B1 | no binding | no binding | binds | binds | no binding | binds | binds |  |  |  |  |  |  |  |  |  |
| B2 |  |  |  | binds |  | binds |  | no binding | binds | no binding | binds | binds | binds | no binding | binds |  |
| B3 |  |  |  |  |  |  |  |  |  |  |  |  |  |  |  | binds |
